“And” between values parts separate entries of the source, which are not always exact repeats. Equal values may be shown once. Further values from the same series stand in other lists.
Assays:
[1] = Phase 2 toxicokinetics of brincidofovir and cidofovir in plasma; assay type: in vivo, Sprague-Dawley CD rats; conditions: for Imputed Concentration, Mean / Imputed Concentration, individual animals: brincidofovir 15 mg/kg 2-h IV infusion, BLQ imputed as zero
Protocol: Plasma samples (108) were collected 2 hours following the initiation of dosing on Day 1 and Day 7 (Group 1), or at 1, 2, 8, and 24 hours following the initiation of dosing on Day 1, and prior to administration and at 2, 8, and 24 hours following the initiation of dosing on Day 7 (Groups 2 and 3), and analyzed to determine the concentrations of brincidofovir and the metabolite, cidofovir), by LC/MS/MS.
(§1) Approximately 0.4 mL of whole blood was obtained via the tail vein from each animal at each time point. Animals were not fasted prior to blood collection. Blood was collected into tubes containing K2EDTA anticoagulant and placed on wet ice in an upright position, per facility SOP prior to processing. Plasma was separated by centrifugation (10 minutes at approximately 2000 g, at approximately 2-8° C.). Approximately 0.10 mL of plasma was transferred into a single cryotube appropriately labeled with study number, animal number, time point, date of sampling and sample type. Remaining plasma was transferred into a second cryotube and retained as a backup sample. Plasma frozen at approximately −80±10° C. within approximately 2 hours after collection of each blood sample until analysis. Animals were euthanized (CO2 inhalation) after the final blood collection.
In general, TK parameters were estimated using mean plasma concentrations of brincidofovir and cidofovir derived from the composite blood sampling design using Phoenix WinNonLin (V 6.3).
A composite blood sampling design was used such that each rat was sampled twice per sampling day. Blood was collected via tail vein from unanesthetized animals into tubes containing anticoagulant and placed on wet ice in an upright position. Animals were not fasted prior to blood collection. Plasma was separated by centrifugation (for 10 minutes at approximately 2000 g, at approximately 2-8° C.), and transferred into individually labeled cryotubes. All cryotubes containing the collected plasma samples were appropriately labeled as to study number, animal number, time point, date of sampling and sample type. All plasma samples were obtained and frozen at approximately −80° C. (±10° C.) within approximately 2 hours after collection of each blood sample until analysis.
Rat plasma bioanalysis was conducted by Pyxant Laboratories. Plasma samples were analyzed for concentrations of brincidofovir and cidofovir using a method based upon protein precipitation extraction followed by LC-MS/MS analysis; calibration ranges for brincidofovir and cidofovir were 1.00-1500 ng/mL and 5.00-750 ng/mL, respectively, (Pyxant study number 3025) for a 50 μL aliquot of rat plasma. Sample analysis for ISR was not performed as part of this non-GLP study.
For the generation of Mean Profiles, all sample concentrations that were below the limit of quantitation (BLQ) were set to 0.
All pharmacokinetic parameter estimates were completed using a Non-Compartmental Model (Model 200-202 for IV infusion administration). The AUClast and AUCinf were calculated using the linear up log down trapezoidal rule.

[2] = 28-day study toxicokinetics of brincidofovir and CDV in plasma; assay type: in vivo, Sprague-Dawley CD rats; conditions: plasma brincidofovir, Day 29, 1 mg/kg, combined male and female rats, mean
Protocol: Blood samples were obtained for the determination of plasma concentrations of brincidofovir and the brincidofovir metabolite, cidofovir.
as §1, with “Approximately 0.40 mL of” for “Approximately 0.4 mL of”, “an upright position. Plasma was” for “an upright position, per facility SOP prior to processing. Plasma was”, “by centrifugation (for 10 minutes at” for “by centrifugation (10 minutes at”, “C.). Approximately 0.150 mL of” for “C.). Approximately 0.10 mL of”, “appropriately labeled as to study number,” for “appropriately labeled with study number,”, “sample. Plasma was obtained and frozen at” for “sample. Plasma frozen at”
Bioanalytical samples were analyzed using a validated liquid chromatographic-triple quadruple mass spectrometric (LC-MS/MS) assay at Pyxant Labs.
Upon receipt of the plasma concentration data, noncompartmental toxicokinetic analysis was performed by Nuventra, Inc. Durham, N.C.

[3] = 1 mg/kg, female rats, Day 1, 1 h, listed as BCV, 1 mg/kg
[4] = 1 mg/kg, female rats, Day 1, 2 h, listed as BCV, 1 mg/kg
[5] = 1 mg/kg, female rats, Day 1, 8 h, listed as BCV, 1 mg/kg
[6] = 1 mg/kg, female rats, Day 7, 2 h, listed as BCV, 1 mg/kg
[7] = 1 mg/kg, female rats, Day 7, 8 h, listed as BCV, 1 mg/kg
[8] = 1 mg/kg, male rats, Day 1, 1 h, listed as BCV, 1 mg/kg
[9] = 1 mg/kg, male rats, Day 1, 2 h, listed as BCV, 1 mg/kg
[10] = 1 mg/kg, male rats, Day 7, 2 h, listed as BCV, 1 mg/kg
[11] = 15 mg/kg, female rats, Day 1, 1 h, listed as BCV, 15 mg/kg
[12] = 15 mg/kg, female rats, Day 1, 2 h, listed as BCV, 15 mg/kg
[13] = 15 mg/kg, female rats, Day 1, 8 h, listed as BCV, 15 mg/kg
[14] = 15 mg/kg, female rats, Day 1, 24 h, listed as BCV, 15 mg/kg
[15] = 15 mg/kg, female rats, Day 7, 2 h, listed as BCV, 15 mg/kg
[16] = 15 mg/kg, female rats, Day 7, 8 h, listed as BCV, 15 mg/kg
[17] = 15 mg/kg, male rats, Day 1, 1 h, listed as BCV, 15 mg/kg
[18] = 15 mg/kg, male rats, Day 1, 2 h, listed as BCV, 15 mg/kg
[19] = 15 mg/kg, male rats, Day 1, 8 h, listed as BCV, 15 mg/kg
[20] = 15 mg/kg, male rats, Day 1, 24 h, listed as BCV, 15 mg/kg
[21] = 15 mg/kg, male rats, Day 7, 2 h, listed as BCV, 15 mg/kg
[22] = 15 mg/kg, male rats, Day 7, 8 h, listed as BCV, 15 mg/kg
[23] = 15 mg/kg, male rats, Day 7, 24 h, listed as BCV, 15 mg/kg

CCCCCCCCCCCCCCCCOCCCOP(=O)(O)CO[C@H](CO)Cn1ccc(N)nc1=O [Brincidofovir]
C (Concentration), individual animals [1, 3]: 109 ng/mL and 126 ng/mL and 177 ng/mL | IC (Imputed Concentration), individual animals [1, 3]: 109 ng/mL and 126 ng/mL and 177 ng/mL | C (Concentration), individual animals [1, 4]: 253 ng/mL and 164 ng/mL and 155 ng/mL | IC (Imputed Concentration), individual animals [1, 4]: 253 ng/mL and 164 ng/mL and 155 ng/mL | C (Concentration), individual animals [1, 5]: 2.30 ng/mL and 1.45 ng/mL | IC (Imputed Concentration), individual animals [1, 5]: 2.30 ng/mL and 1.45 ng/mL and 0.00 ng/mL | IC (Imputed Concentration), individual animals ([1]; 1 mg/kg, female rats, Day 1, 24 h): 0.00 ng/mL | IC (Imputed Concentration), individual animals ([1]; 1 mg/kg, female rats, Day 7, 0 h): 0.00 ng/mL | C (Concentration), individual animals [1, 6]: 115 ng/mL and 82.1 ng/mL and 89.2 ng/mL | IC (Imputed Concentration), individual animals [1, 6]: 115 ng/mL and 82.1 ng/mL and 89.2 ng/mL | C (Concentration), individual animals [1, 7]: 6.58 ng/mL | IC (Imputed Concentration), individual animals [1, 7]: 6.58 ng/mL and 0.00 ng/mL (2×) | IC (Imputed Concentration), individual animals ([1]; 1 mg/kg, female rats, Day 7, 24 h): 0.00 ng/mL | C (Concentration), individual animals [1, 8]: 156 ng/mL and 244 ng/mL and 280 ng/mL | IC (Imputed Concentration), individual animals [1, 8]: 156 ng/mL and 244 ng/mL and 280 ng/mL | C (Concentration), individual animals [1, 9]: 220 ng/mL and 283 ng/mL and 203 ng/mL | IC (Imputed Concentration), individual animals [1, 9]: 220 ng/mL and 283 ng/mL and 203 ng/mL | IC (Imputed Concentration), individual animals ([1]; 1 mg/kg, male rats, Day 1, 8 h): 0.00 ng/mL | IC (Imputed Concentration), individual animals ([1]; 1 mg/kg, male rats, Day 1, 24 h): 0.00 ng/mL | IC (Imputed Concentration), individual animals ([1]; 1 mg/kg, male rats, Day 7, 0 h): 0.00 ng/mL | C (Concentration), individual animals [1, 10]: 255 ng/mL and 189 ng/mL and 179 ng/mL | IC (Imputed Concentration), individual animals [1, 10]: 255 ng/mL and 189 ng/mL and 179 ng/mL | IC (Imputed Concentration), individual animals ([1]; 1 mg/kg, male rats, Day 7, 8 h): 0.00 ng/mL | IC (Imputed Concentration), individual animals ([1]; 1 mg/kg, male rats, Day 7, 24 h): 0.00 ng/mL | C (Concentration), individual animals [1, 11]: 3030 ng/mL and 3930 ng/mL and 3450 ng/mL | IC (Imputed Concentration), individual animals [1, 11]: 3030 ng/mL and 3930 ng/mL and 3450 ng/mL | C (Concentration), individual animals [1, 12]: 2460 ng/mL and 1860 ng/mL and 3380 ng/mL | IC (Imputed Concentration), individual animals [1, 12]: 1860 ng/mL and 3380 ng/mL | C (Concentration), individual animals [1, 13]: 7.97 ng/mL and 6.57 ng/mL | IC (Imputed Concentration), individual animals [1, 13]: 7.97 ng/mL and 6.57 ng/mL | C (Concentration), individual animals [1, 14]: 1.25 ng/mL and 2.48 ng/mL | IC (Imputed Concentration), individual animals [1, 14]: 1.25 ng/mL and 2.48 ng/mL | IC (Imputed Concentration), individual animals ([1]; 15 mg/kg, female rats, Day 7, 0 h): 0.00 ng/mL | C (Concentration), individual animals [1, 15]: 2220 ng/mL and 995 ng/mL and 1750 ng/mL | IC (Imputed Concentration), individual animals [1, 15]: 2220 ng/mL and 995 ng/mL and 1750 ng/mL | C (Concentration), individual animals [1, 16]: 6.27 ng/mL and 4.75 ng/mL | IC (Imputed Concentration), individual animals [1, 16]: 6.27 ng/mL and 4.75 ng/mL | IC (Imputed Concentration), individual animals ([1]; 15 mg/kg, female rats, Day 7, 24 h, listed as BCV, 15 mg/kg): 2.37 ng/mL and 0.00 ng/mL (2×) | C (Concentration), individual animals [1, 17]: 4020 ng/mL and 4030 ng/mL and 5060 ng/mL | IC (Imputed Concentration), individual animals [1, 17]: 4020 ng/mL and 4030 ng/mL and 5060 ng/mL | C (Concentration), individual animals [1, 18]: 2510 ng/mL and 2990 ng/mL and 3010 ng/mL | IC (Imputed Concentration), individual animals [1, 18]: 2510 ng/mL and 2990 ng/mL and 3010 ng/mL | C (Concentration), individual animals [1, 19]: 8.23 ng/mL and 9.85 ng/mL | IC (Imputed Concentration), individual animals [1, 19]: 8.23 ng/mL and 9.85 ng/mL | C (Concentration), individual animals [1, 20]: 1.10 ng/mL and 1.36 ng/mL | IC (Imputed Concentration), individual animals [1, 20]: 1.10 ng/mL and 1.36 ng/mL | IC (Imputed Concentration), individual animals ([1]; 15 mg/kg, male rats, Day 7, 0 h): 0.00 ng/mL | C (Concentration), individual animals [1, 21]: 1640 ng/mL and 1940 ng/mL and 2150 ng/mL | IC (Imputed Concentration), individual animals [1, 21]: 1640 ng/mL and 1940 ng/mL and 2150 ng/mL | C (Concentration), individual animals [1, 22]: 7.60 ng/mL and 8.73 ng/mL | IC (Imputed Concentration), individual animals [1, 22]: 7.60 ng/mL and 8.73 ng/mL | C (Concentration), individual animals [1, 23]: 1.32 ng/mL and 1.17 ng/mL | IC (Imputed Concentration), individual animals [1, 23]: 1.32 ng/mL and 1.17 ng/mL | Imputed Concentration, Mean ([1]; female rats, Day 7, 8 h): 5.45 | Imputed Concentration, Mean ([1]; female rats, Day 7, 24 h): 0.790 | Imputed Concentration, individual animals ([1]; female rats, Day 7, 24 h, listed as BCV): 2.37 and 0.00 (2×) | Imputed Concentration, Mean ([1]; male rats, Day 7, 8 h): 8.72 | Imputed Concentration, Mean ([1]; male rats, Day 7, 24 h): 1.45 | Imputed Concentration, individual animals ([1]; male rats, Day 7, 24 h, listed as BCV): 1.85 and 1.32 and 1.17 | Clast [2]: 126 ng/mL
